From PMC6919601, “Identification of Plasmodium dipeptidyl aminopeptidase allosteric inhibitors by high throughput screening” (PLoS ONE, 2019)
Among all 110,000 compounds or so, about 230 (0.21%) showed an effect of 50% or more. Some of the results follow.
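Further: 30 min substrate incubation versus DMSO and 10 µM JCP410 controls.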

These compounds were tested against DPAP1 (Plasmodium falciparum, UniProt Q8IIJ9) (assay: primary screen, percent inhibition; read by cleavage of a fluorogenic dipeptide substrate; higher = more effect of the substance).
Chain of DPAP1 (Q8IIJ9 whole entry, looked up): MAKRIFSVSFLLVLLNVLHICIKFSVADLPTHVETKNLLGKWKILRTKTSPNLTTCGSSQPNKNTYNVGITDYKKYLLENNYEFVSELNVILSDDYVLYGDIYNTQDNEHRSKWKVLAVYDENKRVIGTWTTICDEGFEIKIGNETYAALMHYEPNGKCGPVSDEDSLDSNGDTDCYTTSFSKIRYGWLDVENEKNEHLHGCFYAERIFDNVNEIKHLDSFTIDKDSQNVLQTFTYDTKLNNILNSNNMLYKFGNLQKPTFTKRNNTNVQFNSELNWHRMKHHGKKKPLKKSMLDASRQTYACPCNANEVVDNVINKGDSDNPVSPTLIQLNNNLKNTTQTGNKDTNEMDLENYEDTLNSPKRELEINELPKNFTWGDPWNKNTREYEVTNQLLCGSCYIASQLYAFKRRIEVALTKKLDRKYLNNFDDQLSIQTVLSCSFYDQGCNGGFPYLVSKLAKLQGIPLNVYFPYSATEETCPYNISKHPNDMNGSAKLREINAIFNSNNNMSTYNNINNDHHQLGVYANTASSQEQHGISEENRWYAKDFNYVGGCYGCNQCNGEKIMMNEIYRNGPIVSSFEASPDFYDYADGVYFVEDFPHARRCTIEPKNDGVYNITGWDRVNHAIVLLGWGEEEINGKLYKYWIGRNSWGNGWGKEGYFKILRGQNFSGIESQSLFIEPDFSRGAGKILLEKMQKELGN
Parameters: species or system P. falciparum D10 trophozoite lysates; single well
For O=C1C/C(=C/NCCc2ccc(O)cc2)C(=O)N1, the “% Inhibition @ 10 uM” value was 0.484%. For CCCCn1c2ccccc2n2cc(-c3ccccc3)nc12, the “% Inhibition @ 10 uM” value was 0.177%. With CCOC(=O)C1=C(C)OC(N)=C(C#N)C1c1ccc(F)cc1 (stereo not drawn) the “% Inhibition @ 10 uM” value was 1.27%. With N#CCNC(=O)[C@H](CS(=O)(=O)Cc1ccccc1)NC(=O)c1ccc(C(=O)c2ccccc2)cc1 the “% Inhibition @ 10 uM” value was -6.98%. For CC1=C(C(=O)OCC2CCCCC2)C(c2ccc(Br)cc2)CC(=O)N1 (stereo not drawn), the “% Inhibition @ 10 uM” value was 5.32%. In the case of N#CCNC(=O)C(Cc1ccc(-n2cccc2)cc1)NC(=O)OCc1ccccc1 (stereo not drawn), the “% Inhibition @ 10 uM” value was -2.02%. For CCOC(=O)c1c(NC(=O)c2cc(-c3ccc4c(c3)OCO4)on2)sc2c1CCCC2, the “% Inhibition @ 10 uM” value was -6.45%. For COc1ccc2c(c1)c(C(=O)CN1CCCCC1)c(C)n2C, the “% Inhibition @ 10 uM” value was -3.41%. In the case of Cc1sc(NC(=O)c2ccccc2Br)c(C(N)=O)c1C, the “% Inhibition @ 10 uM” value was 16.3%. For COc1ccccc1N1CCN(C2CCN(C(C)=O)CC2)CC1, the “% Inhibition @ 10 uM” value was -1.75%. For Cc1ccc(C(=O)Nc2cc(C(F)(F)F)ccc2Cl)cc1[N+](=O)[O-], the “% Inhibition @ 10 uM” value was 7.04%. Cc1ccc2c(=O)cc(C(=O)Nc3sc4c(c3C(N)=O)CCCC4)oc2c1C was tested, and the “% Inhibition @ 10 uM” value was 3.31%. With CCN(CC)Cc1csc2ccc(Br)cc12 the “% Inhibition @ 10 uM” value was -6.34%. In the case of Cc1ccc2onc(CC(=O)NCCN3CCN(C)CC3)c2c1, the “% Inhibition @ 10 uM” value was 2.07%. For CC1(C)CC(=O)C2=C(C1)OC1=C(C(=O)CC(C)(C)C1)C21C(=O)Nc2ccccc21, the “% Inhibition @ 10 uM” value was -3.5%. For CC(C)(C)C(=O)NCCCc1nc2ccccc2[nH]1, the “% Inhibition @ 10 uM” value was 5.4%. In the case of COc1ccc(-n2c(=S)[nH]c3c(c2=O)C2(CCCC2)Cc2ccccc2-3)cc1, the “% Inhibition @ 10 uM” value was -4.23%. In the case of CC(C)CNC(=O)CN(C1CCCCC1)S(=O)(=O)c1ccc(F)cc1, the “% Inhibition @ 10 uM” value was 0.389%. Cc1cc(C)cc(-n2nnc(-c3nsc(NC(=O)c4ccccc4)n3)c2C)c1 was tested, and the “% Inhibition @ 10 uM” value was -7.24%. In the case of O=C(CN(Cc1ccccc1)S(=O)(=O)c1ccc(Br)cc1)NCC1CCCO1 (stereo not drawn), the “% Inhibition @ 10 uM” value was 2.46%. In the case of O=C(Nc1nc2ccc(Br)cc2s1)C1CC2CCC1C2 (stereo not drawn), the “% Inhibition @ 10 uM” value was -2.37%. With N#Cc1c(NC(=S)NC(=O)/C=C/c2ccccc2)sc2c1CCC2 the “% Inhibition @ 10 uM” value was 3.32%. With Cc1cc2ncc(S(=O)(=O)c3ccccc3)c(-c3ccc(Cl)cc3)n2n1 the “% Inhibition @ 10 uM” value was -3.13%. For CCOC(=O)N1CCN(C(=O)CSc2cn(Cc3ccccc3C)c3ccccc23)CC1, the “% Inhibition @ 10 uM” value was 1.91%. In the case of COc1cc2c(cc1OC)C(COc1ccc(F)cc1)N(C(=O)c1ccc3c(c1)OCO3)CC2 (stereo not drawn), the “% Inhibition @ 10 uM” value was 1.91%. O=C(N/N=C/c1ccccc1O)NC12CC3CC(CC(C3)C1)C2 was tested, and the “% Inhibition @ 10 uM” value was 20.4%. With Clc1ccc(-c2nnn3c2nc(NCc2ccco2)c2ccccc23)cc1 the “% Inhibition @ 10 uM” value was -6.52%.
